According to the RNAGym collection of RNA variant scans (doi:10.1093/nar/gkz1192):
Read counts are not given, so values of variants with three or more changes are uncertain.

B1: CPEB3 Ribozyme (parent)
chain: UAACAGGGGGCCACAGCAGAAGCGUUCACGUCGCAGCCCCUGUCAGAUUCUGGUGAAUCUGCGAAUUCUGCUGUAUAUCUC

Variants of: B1
Test: self-cleavage, relative activity (ratio to wild type); higher = more cleavage; in vitro, sequencing
Method in brief: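 For each CPEB3 ribozyme variant, relative activity is its cleaved/total read fraction divided by the unmutated ribozyme's. Barcoded error-prone PCR libraries were transcribed by T7 RNA polymerase (5 hours, 37°C) and held in DNase I for 15 min before an EDTA stop, with cleavage occurring throughout. Template-switching reverse transcription and Illumina sequencing were used to read the RNAs. A 5-read minimum applied, and results are the mean of three batches.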
Work on U1A A21G U25C U69A yielded a self-cleavage of 0.19.
With U1A A28G U41C the self-cleavage was 0.65.
For U1C A2G A3C U69C A75U A77U, the self-cleavage was 0.58.
Variant U1A A13U A21G A47G A65G has a self-cleavage of 0.09.
U1A A3G U25G A45G G70A U78C showed a self-cleavage of 0.09.
Variant U1A U26C U60C has a self-cleavage of 0.24.
With U1C A2G U51C A64U C68A U78C the self-cleavage was 0.12.
For U1C A2G G10A, the self-cleavage was 0.09.
In the case of U1A G9A A20G U41C U72C, the self-cleavage is reported as 0.27.
U1A A3G A15G showed a self-cleavage of 0.82.
U1A U43C U48C gave a self-cleavage of 0.25.
Variant U1C A2G U26A A28U U66A has a self-cleavage of 0.1.
U1A G30A U48C U58G U78A gave a self-cleavage of 0.03.
Work on U1A A18U A64G U78C yielded a self-cleavage of 0.19.
For U1A A35G U80C, the self-cleavage was 1.33.
Work on U1C A2U A28G A64G U78C yielded a self-cleavage of 0.2.
Work on U1A A3G U74C A75G U76A yielded a self-cleavage of 1.24.
In the case of U1A G9U G42A U69A, the self-cleavage is reported as 0.12.
U1A G8A G16U U41C U54C U78C C79U showed a self-cleavage of 0.05.
U1A C14U G16A G19C U78A gave a self-cleavage of 0.1.
Variant U1A A18U U43C has a self-cleavage of 0.24.
U1A A20U A21G A57C A64U U67C U78C gave a self-cleavage of 0.06.
Variant U1A A20G G33U A56U U78C has a self-cleavage of 0.13.
For U1C A2G C23U U26A C37A U72A U80C, the self-cleavage was 0.15.
For U1A A3G U60C A64G U78C, the self-cleavage was 0.52.
U1A G10A C34A U49C A64G showed a self-cleavage of 0.07.
Work on U1A U43A A45U C62A U74C U80A yielded a self-cleavage of 0.13.
U1C A2G A15G A20G U41A U54A A64G gave a self-cleavage of 0.47.
U1A A13U U54A U67A gave a self-cleavage of 0.79.
In the case of U1A A15G A28G C39G A57G, the self-cleavage is reported as 0.08.
Variant U1A G30C U43C U48C C50U U80G has a self-cleavage of 0.04.
With U1A U48A C59U the self-cleavage was 0.06.
Variant U1A U51C U80A has a self-cleavage of 1.1.
U1A A18G U43G A56G U60C showed a self-cleavage of 0.22.
For U1A C4A A15U U51C A57U U72C, the self-cleavage was 0.3.
Variant U1A U25A U26C A47G A57U has a self-cleavage of 0.14.
U1A A13G G22A showed a self-cleavage of 0.24.
For U1A C11G A15U C17U U48A C59U U66A, the self-cleavage was 0.04.
U1A A20G A21G U43G gave a self-cleavage of 0.13.
U1A A15G U51C A56G gave a self-cleavage of 0.94.
Variant U1A A3C A13U U72C has a self-cleavage of 1.17.
With U1A A2C U74A U80C the self-cleavage was 1.22.
U1A U41C A57C gave a self-cleavage of 0.39.
In the case of U1A C14A A21G C29U G55U, the self-cleavage is reported as 0.08.
For U1A A13G A45G A47G, the self-cleavage was 0.33.
In the case of U1A A15G A20G U26C U48A U69C A75G, the self-cleavage is reported as 0.31.
Work on U1A A15G A28G U58C U67C A77U yielded a self-cleavage of 0.11.
U1C A2U A5U G16C A77U showed a self-cleavage of 0.17.
U1A A28G A35G U54A showed a self-cleavage of 1.15.
For U1A A20U U31C, the self-cleavage was 0.21.
U1A A13G U43C gave a self-cleavage of 0.65.
U1A U41A U74C showed a self-cleavage of 0.31.
For U1A A35G A47U A75G U78G, the self-cleavage was 1.28.
For U1A U60A G70C, the self-cleavage was 0.36.
Work on U1A A13U U31C A56U yielded a self-cleavage of 0.27.
In the case of U1A A18G A20G C23G U25C U72C G73C, the self-cleavage is reported as 0.07.
U1A U54A U66C showed a self-cleavage of 0.45.
U1A U26A A57G showed a self-cleavage of 0.74.
U1A U26C A57U showed a self-cleavage of 0.41.
U1A A3G A18U G33A A47U gave a self-cleavage of 0.31.
In the case of U1A A18U U54A A56U U74A, the self-cleavage is reported as 0.22.
Variant U1C A2G C14U A35U U43A U67C has a self-cleavage of 0.08.
For U1A A3U A21U U26A U41G U51C U74A, the self-cleavage was 0.35.
U1C A2G G10A U67G gave a self-cleavage of 0.24.
Work on U1A C29G A35G C40U U69A U72A A75G yielded a self-cleavage of 0.07.
Work on U1A G33C U41A A45G G46C yielded a self-cleavage of 0.22.
In the case of U1A C12G A13G U43C, the self-cleavage is reported as 0.3.
Variant U1A C59A U76G has a self-cleavage of 0.32.
Work on U1A G7U U54C U80C yielded a self-cleavage of 0.37.
U1A A2G A28G U51C U66C showed a self-cleavage of 0.29.
Work on U1A A13U U41C U60A A75G U76C yielded a self-cleavage of 0.74.
Work on U1C A2G U41A U43C G46U A57G G61U yielded a self-cleavage of 0.21.
In the case of U1A U25A A35U A45G U48C U67C, the self-cleavage is reported as 0.14.
Variant U1A A2C C27U A65G has a self-cleavage of 0.07.
Variant U1A A20C U31A A45G A56G has a self-cleavage of 0.14.
Work on U1A A3G A21U A45G G70A U78C yielded a self-cleavage of 0.48.
For U1A G9A U41A U66C U78A, the self-cleavage was 0.04.
U1C A2C U41C showed a self-cleavage of 0.96.
Variant U1A C11A A64G has a self-cleavage of 0.38.
Variant U1A A45G C79G has a self-cleavage of 0.76.
In the case of U1A A3G U48C U49C U51C, the self-cleavage is reported as 0.39.
Work on U1C A2G G6A A13G A18G C37A A75U yielded a self-cleavage of 0.05.
U1A A20G G36U U41C U49A C62U gave a self-cleavage of 0.25.
With U1A G6A A57G the self-cleavage was 0.32.
For U1A U43A C44U U74C A75U, the self-cleavage was 0.97.
Variant U1C A2G U31A A47G U69C has a self-cleavage of 0.09.
U1C A2G G16U A21U G52A gave a self-cleavage of 0.06.
With U1A A3G A21G G53C A64G U74A U78C the self-cleavage was 0.61.
In the case of U1A A21G C44A, the self-cleavage is reported as 0.36.
For U1A U41C G42C U66C U69A U74A, the self-cleavage was 0.17.
U1A A13G U48A gave a self-cleavage of 0.16.
Variant U1A G8U C32U A35C has a self-cleavage of 0.06.
For U1A A28G A35C, the self-cleavage was 0.67.
For U1A A15G U51A U69A, the self-cleavage was 0.32.
In the case of U1A C40G A57G U80A, the self-cleavage is reported as 0.07.
Variant U1A G10U U58C has a self-cleavage of 0.08.
Work on U1A A35G U51C yielded a self-cleavage of 1.22.
With U1A A21U U78C the self-cleavage was 0.33.
Work on U1A A18U G42A yielded a self-cleavage of 0.19.
In the case of U1A U31C C39A A45C U49A, the self-cleavage is reported as 0.1.
Variant U1A A15G C17U A28G has a self-cleavage of 0.49.
For U1A A21U A64G U66A, the self-cleavage was 0.62.
In the case of U1A A2G G9U U69A, the self-cleavage is reported as 0.41.
For U1A A18U A35U C39U G52A A57G, the self-cleavage was 0.09.
Variant U1A A45G C81U has a self-cleavage of 0.98.
U1A A13G A15G G36U U49C showed a self-cleavage of 0.05.
Variant U1A A21G U51A has a self-cleavage of 0.29.
Work on U1A A5G G55U U69A A77U yielded a self-cleavage of 0.32.
U1A A64G U72A showed a self-cleavage of 0.65.
Work on U1A U60C U72C yielded a self-cleavage of 0.31.
Variant U1C A2G A18U U51A has a self-cleavage of 0.42.
In the case of U1A U25A C39U A47U A64G, the self-cleavage is reported as 0.12.
Variant U1A G9A U25C C29U U49G U76C has a self-cleavage of 0.05.
Variant U1A A3G A56G U60C U66A U74C has a self-cleavage of 0.36.
In the case of U1A C12U A18G A20G G33A A57G U78C, the self-cleavage is reported as 0.09.
With U1A C12G U72A U78C the self-cleavage was 0.09.
In the case of U1A A15G A28G C39U U41C A56G, the self-cleavage is reported as 0.35.
Variant U1A A3C A77G has a self-cleavage of 1.19.
U1A G33A U43G C59A U72C showed a self-cleavage of 0.12.
U1A A5U A28G A35G U74C A75G gave a self-cleavage of 1.21.
With U1A C44U U51G U66A the self-cleavage was 0.17.
In the case of U1A U26C A35U U60C U76A, the self-cleavage is reported as 0.11.
In the case of U1A A13C G19C C32A C39A, the self-cleavage is reported as 0.33.
With U1A G19C U48C the self-cleavage was 0.35.
With U1A A15G C39G U60A the self-cleavage was 0.06.
For U1A A13U U51C U66C U74C, the self-cleavage was 0.59.
Variant U1A U26G G46U U51G U67A has a self-cleavage of 0.13.
With U1A U25C U41A A75U the self-cleavage was 0.07.
For U1A A5U A13U G33U U69G, the self-cleavage was 0.24.
In the case of U1A A13U G16U A45U, the self-cleavage is reported as 0.28.
For U1A U43C U78A, the self-cleavage was 0.78.
Variant U1A G9A A15G A21G has a self-cleavage of 0.25.
Variant U1A A3G U54C has a self-cleavage of 1.11.
Variant U1A A18U U25A U26C U31C A45G has a self-cleavage of 0.08.
U1A U51C G52U gave a self-cleavage of 0.73.
U1A G42A U80A gave a self-cleavage of 0.33.
For U1A G22C C79A, the self-cleavage was 0.27.
Work on U1A A35G U43C G55U yielded a self-cleavage of 0.96.
Work on U1A G10A U67A yielded a self-cleavage of 0.34.
U1A A3G C11A gave a self-cleavage of 0.37.
U1A G8C C12U U31A G73A gave a self-cleavage of 0.43.
U1A U67A A77U showed a self-cleavage of 0.45.
Work on U1A A20C U43A A45G A56G yielded a self-cleavage of 0.25.
In the case of U1A U25A A35G U41A A57C U60C U80A, the self-cleavage is reported as 0.08.
U1A A18G C29A U76C showed a self-cleavage of 0.31.
Work on U1A U25C A65G yielded a self-cleavage of 0.29.
Variant U1A A20G U31C U41C G53A has a self-cleavage of 0.62.
U1A A18U A20G A35G U60A U67C gave a self-cleavage of 0.3.
In the case of U1A A3U U48C U60C G63C, the self-cleavage is reported as 0.26.
Work on U1A A3C A21G U25G yielded a self-cleavage of 0.06.
U1A U49A A56U gave a self-cleavage of 1.02.
In the case of U1A A2G A18G U41C A64U, the self-cleavage is reported as 0.27.
Variant U1A G16C G24C has a self-cleavage of 0.3.
U1A G7A A13G U60A gave a self-cleavage of 0.2.
For U1A G6A C11G U25C A65G, the self-cleavage was 0.25.
For U1A A13C A15U A56U, the self-cleavage was 0.39.
U1A A5G A13U U25C A65G gave a self-cleavage of 0.2.
With U1A C17A U43C C81U the self-cleavage was 0.1.
With U1A A3G U78C the self-cleavage was 1.15.
Work on U1A A5U G6U U54C U58A yielded a self-cleavage of 0.16.
Work on U1A U26C U67C yielded a self-cleavage of 0.31.
U1A G7A A20G showed a self-cleavage of 0.09.
With U1A A18G G53C the self-cleavage was 0.62.
U1A A5G U41A U72A A77U showed a self-cleavage of 0.79.
Work on U1C A2U A18G A35G C40U U67C yielded a self-cleavage of 0.26.
Work on U1A C68A U72G yielded a self-cleavage of 0.22.
In the case of U1A A5U A28G A57G, the self-cleavage is reported as 0.69.
